Measurements: the supplement of paper PMC6609913
Counter-ions that a name gives are not always drawn. ± gives the standard deviation of the averaged measurements. Over roughly 1,300 compounds, “normalised cell viability” has its median near 1; the lowest 2% begin near 0.15. Some of the results follow.

Test system: V-C8 + BRCA2 (BRCA2-proficient hamster cells)
Test: normalised cell viability (fraction of plate median); higher = more viable cells (less toxic)
Details: 5 µM
Summary of the method: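 In two screens, library drugs at 5 μM were given for 3 days (screen 1) or 6 days (screen 2) to hamster V-C8 cells without BRCA2 and V-C8 cells with BRCA2 restored, seeded 24 h earlier in 96-well plates. A resazurin assay gave the cell viability readout, expressed as modified robust per cent of sample against the plate median, with triplicate wells averaged.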

Compound | normalised cell viability (treatment time: 3 days) | normalised cell viability (treatment time: 6 days)
CC(=O)OCC1=C(C(=O)O)N2C(=O)[C@@H](NC(=O)Cc3cccs3)[C@H]2SC1 [Cephalothin sodium salt] | 0.868 ± 0.026 | 0.96 ± 0.14
Clc1ccc(C(Cn2ccnc2)OCc2csc3c(Cl)cccc23)c(Cl)c1 (stereo not given) [Sertaconazole nitrate] | 0.949 ± 0.071 | 0.925 ± 0.12
CCCCc1nc(Cl)c(CO)n1Cc1ccc(-c2ccccc2-c2nnn[nH]2)cc1 [Losartan] | 0.991 ± 0.025 | 0.966 ± 0.047
CC1(C)S[C@@H]2[C@H](NC(=O)Cc3ccccc3)C(=O)N2[C@H]1C(=O)O [Benzylpenicillin sodium] | 1.01 ± 0.018 | 1.01 ± 0.084
CC1(C)S[C@@H]2[C@H](NC(=O)Cc3ccccc3)C(=O)N2[C@H]1C(=O)O [Benzathine benzylpenicillin] | 1.05 ± 0.09 | 0.966 ± 0.019
O=C1c2cccc3c2[C@H](CCC3)CN1[C@@H]1CN2CCC1CC2 [Palonosetron hydrochloride] | 1.05 ± 0.035 | 0.924 ± 0.054
NCC[C@H](O)C(=O)N[C@@H]1C[C@H](N)[C@@H](O[C@H]2O[C@H](CN)[C@@H](O)[C@H](O)[C@H]2O)[C@H](O)[C@H]1O[C@H]1O[C@H](CO)[C@@H](O)[C@H](N)[C@H]1O [Amikacin hydrate] | 0.584 ± 0.023 | 0.699 ± 0.089
CN(C/C=C/C#CC(C)(C)C)Cc1cccc2ccccc12 [Terbinafine] | 0.206 ± 0.0049 | 0.339 ± 0.031
O=c1[nH]cnc2c1ncn2[C@H]1CC[C@@H](CO)O1 [Didanosine] | 0.871 ± 0.031 | 0.945 ± 0.093
Nc1nc(O)c2ncn(CCC(CO)CO)c2n1 [Penciclovir] | 1.01 ± 0.038 | 0.906 ± 0.14
Fc1ccc([C@@H]2CCNC[C@H]2COc2ccc3c(c2)OCO3)cc1 [Paroxetine Hydrochloride] | 0.832 ± 0.017 | 0.876 ± 0.015
NC(CO)C(=O)NNCc1ccc(O)c(O)c1O (stereo not given) [Benserazide hydrochloride] | 1.08 ± 0.088 | 1.05 ± 0.022
CN(C)CCCN1c2ccccc2CCc2ccccc21 [Imipramine hydrochloride] | 0.928 ± 0.024 | 0.96 ± 0.067
NCCC[C@H](N)CC(=O)N[C@H]1CNC(=O)[C@H]([C@H]2C[C@H](O)NC(N)=N2)NC(=O)/C(=C/NC(N)=O)NC(=O)[C@H](CO)NC(=O)[C@H](CO)NC1=O [Viomycin sulfate] | 0.941 ± 0.15 | 0.936 ± 0.076
O=C(Oc1cccc2cccnc12)c1ccccc1 [Benzoxiquine] | 0.791 ± 0.052 | 0.738 ± 0.056
CN1CCC(OC(c2ccccc2)c2ccccc2)CC1 [Diphenylpyraline hydrochloride] | 0.976 ± 0.11 | 1.04 ± 0.037
Clc1ccc(Nc2nnc(Cc3ccncc3)c3ccccc23)cc1 [Vatalanib] | 0.791 ± 0.051 | 0.905 ± 0.062
C[C@H](CCC(=O)O)[C@H]1CC[C@H]2[C@@H]3CC[C@@H]4C[C@H](O)CC[C@]4(C)[C@H]3CC[C@]12C [Lithocholic acid] | 0.888 ± 0.041 | 0.885 ± 0.065

Compound | normalised cell viability (treatment time: 3 days) | normalised cell viability (treatment time: 6 days)
CC(=O)SCC(Cc1ccccc1)C(=O)NCC(=O)OCc1ccccc1 (stereo not given) [Racecadotril] | 0.969 ± 0.037 | 0.977 ± 0.067
COC(=O)C1=C(C)NC(C)=C(C(=O)OC(C)C)C1c1cccc2nonc12 (stereo not given) [Isradipine] | 1.02 ± 0.032 | 0.9264 ± 0.0066
O=C(O)CCCC[C@@H]1SC[C@@H]2NC(=O)N[C@@H]21 [Biotin] | 1.11 ± 0.048 | 1.01 ± 0.031
C[C@@]1(O)CCOC(=O)C1 [Mevalonic-D, L acid lactone] | 1.09 ± 0.038 | 1.06 ± 0.054
COCC(=O)Nc1c(I)c(C(=O)NCC(O)CO)c(I)c(C(=O)N(C)CC(O)CO)c1I (stereo not given) [Iopromide] | 0.877 ± 0.064 | 1.029 ± 0.01
CC1COc2c(N3CCN(C)CC3)c(F)cc3c(=O)c(C(=O)O)cn1c23 (stereo not given) [Ofloxacin] | 0.978 ± 0.13 | 0.959 ± 0.062
Cn1cnc([N+](=O)[O-])c1Sc1ncnc2[nH]cnc12 [Azathioprine] | 0.93 ± 0.032 | 0.93 ± 0.045
CC(C)C(=O)Nc1ccc([N+](=O)[O-])c(C(F)(F)F)c1 [Flutamide] | 0.997 ± 0.041 | 0.976 ± 0.036
OCCN1C[C@H](O)[C@@H](O)[C@H](O)[C@H]1CO [Miglitol] | 1.066 ± 0.0092 | 1.06 ± 0.051
O=S(=O)(O)CCS [Mesna] | 1.06 ± 0.07 | 1.02 ± 0.024
CCn1cc(C(=O)O)c(=O)c2cnc(N3CCCC3)nc21 [Piromidic acid] | 1.03 ± 0.069 | 0.941 ± 0.03
CC(C)(C)NC[C@H](O)c1ccc(O)c(CO)c1 [Levalbuterol hydrochloride] | 0.965 ± 0.089 | 1.004 ± 0.0069
CCCCNC(=O)NS(=O)(=O)c1ccc(C)cc1 [Tolbutamide] | 1 ± 0.035 | 0.973 ± 0.063
O=C(O)c1cc(-c2ccc(F)cc2F)ccc1O [Diflunisal] | 0.992 ± 0.027 | 1 ± 0.036
CC(=O)[C@H]1CC[C@H]2[C@@H]3C[C@H](C)C4=CC(=O)CC[C@]4(C)[C@H]3[C@@H](O)C[C@]12C [Medrysone] | 1.07 ± 0.026 | 1.09 ± 0.058
CCOC(=O)OC(C)OC1=C(C(=O)Nc2ccccn2)N(C)S(=O)(=O)c2ccccc21 (stereo not given) [Ampiroxicam] | 1 ± 0.034 | 0.994 ± 0.079
CCN1CC(CCN2CCOCC2)C(c2ccccc2)(c2ccccc2)C1=O (stereo not given) [Doxapram hydrochloride] | 1.036 ± 0.0075 | 1.04 ± 0.049
